Data on 38 compounds can be found in PubChem BioAssay AID488969 (Vanderbilt High Throughput Screening Facility, 2010).

In all, about 110,000 compounds were measured (“z-score”: median about -0.1, highest 2% from about 2 on). The list shows a part of the results. The source made the active and inactive calls.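 The calls were made as follows: active = z-score in the third read window above 3 or below -3; inactive = the rest.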

The target in this assay is Metabotropic glutamate receptor 8 (Rattus norvegicus) (UniProt P70579). Description: mGluR8 Gi/Go-coupled signaling modulation – cell-based, rat, thallium flux, HTS, primary screen (AID 488969). Conditions: HEK293 rat mGluR8, GIRK (G protein-gated inwardly rectifying potassium channel) thallium flux, FluoZin2; at 10 µM; stronger effect = higher value; submaximal glutamate (EC20) added with thallium.
Sequence of UniProt P70579 (P70579 whole entry, looked up): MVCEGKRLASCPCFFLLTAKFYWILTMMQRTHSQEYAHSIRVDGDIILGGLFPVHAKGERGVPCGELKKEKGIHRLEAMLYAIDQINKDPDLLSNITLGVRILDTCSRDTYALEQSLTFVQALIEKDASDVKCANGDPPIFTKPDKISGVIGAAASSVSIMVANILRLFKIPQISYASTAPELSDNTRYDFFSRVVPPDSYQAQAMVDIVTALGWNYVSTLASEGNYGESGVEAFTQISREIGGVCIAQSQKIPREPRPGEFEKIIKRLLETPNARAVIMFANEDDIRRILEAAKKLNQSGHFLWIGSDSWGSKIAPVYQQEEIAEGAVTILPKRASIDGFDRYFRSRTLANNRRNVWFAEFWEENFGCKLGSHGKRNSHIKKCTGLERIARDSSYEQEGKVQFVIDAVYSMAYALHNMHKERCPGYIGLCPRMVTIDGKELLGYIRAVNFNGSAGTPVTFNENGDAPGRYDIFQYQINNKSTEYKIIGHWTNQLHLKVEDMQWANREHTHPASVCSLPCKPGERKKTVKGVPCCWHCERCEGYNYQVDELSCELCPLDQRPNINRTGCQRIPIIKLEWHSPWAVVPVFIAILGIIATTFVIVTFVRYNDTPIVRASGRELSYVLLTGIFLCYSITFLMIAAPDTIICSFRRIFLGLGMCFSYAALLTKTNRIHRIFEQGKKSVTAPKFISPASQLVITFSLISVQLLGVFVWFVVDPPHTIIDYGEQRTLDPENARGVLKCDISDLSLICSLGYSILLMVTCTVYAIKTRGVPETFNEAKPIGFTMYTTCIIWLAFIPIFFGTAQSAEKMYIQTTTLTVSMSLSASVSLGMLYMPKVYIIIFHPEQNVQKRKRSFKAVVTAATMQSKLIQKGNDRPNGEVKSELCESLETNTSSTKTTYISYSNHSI
Compound `C=CCn1c(SCC(=O)N2CC(=O)Nc3ccccc32)nc2scc(-c3ccccc3)c2c1=O` yielded a z-score of 0.252.

`C=CCn1c(COc2ccccc2C)nnc1SCC(=O)O` came in with a z-score of 0.662.

With `Cc1cccc(-c2nc3cc(NC(=O)C4CCCO4)ccc3o2)c1` (stereo not drawn), the z-score is -0.137.

With `Fc1ccc(Sc2cc(Cl)c(-c3ccccc3)nn2)cc1`, the z-score was -1.58.

The compound `O=C(COC(=O)c1ccc(NS(=O)(=O)c2ccc3c(c2)OCCO3)cc1)NCC1CCCO1` (stereo not drawn) yielded a z-score of 0.0379.

For the compound `COC(=O)c1ccc(NC(=O)N2CCC(O)(c3cccnc3)CC2)cc1`, the z-score is 0.813.

In the case of `CNC(=O)c1c(O)c2cccc3c2n(c1=O)CC3`, the z-score turned out to be 0.613.

For `CCOc1cc(N2CCOCC2)c(OCC)cc1NC(=O)COc1ncnc2ccc(Br)cc12`, the z-score is -0.176.

As for `Cc1nnc(SCc2cc(=O)[nH]c(N3CCN(Cc4ccccc4)CC3)n2)s1`, the z-score is -0.0743.

Consider `CCOC(=O)c1cc(-c2ccc(N)cc2)sc1N`, for which the z-score is -1.02.

In turn, `CCCCCN1CC(O)=C(c2nc(-c3ccc(Cl)cc3)cs2)C1=N` displayed a z-score of 0.807.

For `CC1(C)C2CC=C(/C=N/n3cnnc3)C1C2` (stereo not drawn), the z-score was determined as 2.

On to `Cc1ccc(S(=O)(=O)c2ccc(Oc3cccc(C)c3)cc2)cc1`, for which the z-score was -0.0386.

Consider `O=C(CSc1nc2ccccc2o1)Nc1cc(C(F)(F)F)ccc1N1CCOCC1`, for which the z-score was 0.0658.

Take `COC(=O)c1c(NC(NC(C)=O)C(Cl)(Cl)Cl)sc2c1CCCC2` (stereo not drawn): the z-score is -0.201.

Turning to `COc1ccc(OC)c(C2Nc3nc4ccccc4n3C(C)=C2C(=O)Nc2ccc(C)cc2C)c1` (stereo not drawn), the z-score was -0.172.

For the compound `O=C(CCN1C(=O)COc2ccccc21)NCCCN1CCc2ccccc2C1`, the z-score was active: 7.6.

Take `Cc1ccc(OCCCC(=O)Nc2nccs2)cc1`: the z-score stood at 1.5.

In the case of `CC(Sc1nnc(NC2CCCCC2)s1)C(=O)Nc1ccc2c(c1)C(=O)c1ccccc1C2=O` (stereo not drawn), the z-score came out at 0.95.

Regarding `Cc1ccc2nc(N3CCN(Cc4nnnn4C4CCCC4)CC3)c(C#N)cc2c1`, the z-score was -0.105.

With `CCCSc1nnc(CSc2nc3ccccc3s2)n1-c1ccccc1`, the z-score was 0.0811.

For `CCOC(=O)N1CCN(C(=O)Nc2ccc3nc(C)sc3c2)CC1`, the z-score came out at 0.467.

For the compound `CCN(CC)CCC(=O)Nc1ccc2c(c1)N(C(=O)CN(CC)CC)c1ccccc1CC2`, the z-score is -0.214.

The compound `COC(=O)Nc1nnc(CC(=O)Nc2ccccc2C)s1` showed a z-score of 0.415.

`COc1cc(C)c(NC(=S)Nc2cccc(Cl)c2C)cc1OC`: the z-score was -0.261.

As to `N/C(Cc1ccc([N+](=O)[O-])cc1)=N\OC(=O)c1ccc([N+](=O)[O-])cc1`, the z-score is -0.153.

As for `O=C(NN=C(Cc1ccccc1)Cc1ccccc1)c1ccc(F)cc1`, the z-score is active: 4.71.

Take `CC(C)Sc1nc(O)c(Cc2ccccc2)c(=O)[nH]1`: the z-score was -0.214.

Regarding `O=C(O)COc1ccc(-c2nccc(-c3cccs3)n2)cc1`, the z-score amounted to 0.641.

On to `COc1ccccc1N1CCN(c2ccc([N+](=O)[O-])cc2Cl)CC1`, for which the z-score turned out to be 0.0156.

On to `O=c1cc(N2CCc3ccccc32)[nH]c(=O)n1Cc1ccc(F)cc1`, for which the z-score was -0.00953.

With `CC1(C)Nc2ccccc2C(=O)N1NS(=O)(=O)c1ccccc1`, the z-score stood at 0.16.

For `O=c1c(-c2ccco2)[n+]([O-])c2ccccc2n1OCc1ccccc1F`, the z-score was -0.377.

As to `CCc1ccc(C(=O)CSc2nc3ccccc3c(=O)[nH]2)cc1`, the z-score is -0.108.

`O=C(NC1CCCCC1)C(c1cccs1)N(Cc1cccs1)C(=O)c1cccs1` (stereo not drawn): the z-score came out at 0.00854.

Compound `CCN1C(=O)CSc2ccc(C(=O)NCc3ccc(OC)cc3)cc21` showed a z-score of 0.0166.

`CCCc1cc(Nc2c(C)n(C)n(-c3ccccc3)c2=O)n2c(nc3ccccc32)c1C#N`: the z-score was -1.44.

Take `COc1ccc(CCN(Cc2cccs2)S(=O)(=O)c2ccc(-n3cnnn3)c(OC)c2)cc1OC`: the z-score stood at 0.00123.
